In the supplement of paper PMC12217912:
The other results are listed elsewhere or left out. The full chains were built here from the parent and the listed change. Values near 0.05 are background.

B1: TEV protease; numbered along this chain (parent)
chain: MGESLFKGPRDYNPISSSICHLTNESDGHTTSLYGIGFGPFIITNKHLFRRNNGTLVVQSLHGVFKVKDTTTLQQHLVDGRDMIIIRMPKDFPPFPQKLKFREPQREERICLVTTNFQTKSMSSMVSDTSCTFPSGDGIFWKHWIQTKDGQCGSPLVSTRDGFIVGIHSASNFTNTNNYFTSVPKNFMELLTNQEAQQWVSGWRLNADSVLWGGHKVFMVKPEEPFQPVKEATQL

Variants of: B1
Assay: raw area under fraction-flipped curve 0-4 h after induction (AUC4h, not background-subtracted), DNA-recorder readout of cleavage of the substrate (dimensionless); higher = more cleavage of the substrate by the protease variant
Settings: temperature: 34 °C; time window: 0-4 h after rhamnose induction
Experimental: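 In vivo DNA recorder in E. coli TOP10(DE3) ΔrhaA at 34 °C. Each TEVp single-site mutant (parent TEVp 0) is paired with a single-site variant of the 7-mer TEVs (canonical ENLYFQ|S). The substrate sits between flexible linkers in a Bxb1-sfGFP-TEVs-SsrA fusion, so cleavage stabilises Bxb1 and speeds flipping of a recombination array, read by NGS. The value is the raw area under the fraction-flipped curve over 0-4 h after rhamnose induction (AUC4h), with ≥20 reads per time point. It is not background-subtracted; inactive controls average about 0.047.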
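Note: Bxb1 expression induced with 0.2% (w/v) L-rhamnose at OD600 near 0.5, cultures sampled hourly, flipped fraction per protease–substrate barcode pair counted by paired-end Illumina sequencing.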

Variant	area with substrate ENLYFAS	area with substrate ENLYFES	area with substrate ENLYFGS	area with substrate ENLYFIS	area with substrate ENLYFLS	area with substrate ENLYFMS	area with substrate ENLYFNS	area with substrate ENLYFPS	area with substrate ENLYFRS	area with substrate ENLYFTS	area with substrate ENLYFWS	area with substrate ENLYFDS	area with substrate ENLYFFS	area with substrate ENLYFVS	area with substrate ENLYFYS	area with substrate ENLYFCS	area with substrate ENLYFHS	area with substrate ENLYFKS	area with substrate ENLYFSS
MGESLFKGPRDYNPISSSICHLTNESDGHTTSLYGIGFGPFIITNKHLFRRNNGTLVVQSLHGVFKVKDTTTLQQHLVDGRDMIIIRMPKDFPPFPQKLKFREPQREERICLVTTNFQTKSMSSMVSDTSCTFPSIDGIFWKHWIQTKDGQCGSPLVSTRDGFIVGIHSASNFTNTNNYFTSVPKNFMELLTNQEAQQWVSGWRLNADSVLWGGHKVFMVKPEEPFQPVKEATQL [G136I]	0.0514	0.0585	0.0497	0.0629	0.0567	0.0554	0.0632	0.0707	0.0436	0.0379	0.0421	–	–	–	–	–	–	–	–
MGESLFKGPRDYNPISSSICHLTNESDGHTTSLYGIGFGPFIITNKHLFRRNNGTLVVQSLHGVFKVKDTTTLQQHLVDGRDMIIIRMPKDFPPFPQKLKFREPQREERICLVTTNFQTKSMSSMVSDTSCTFPSGDGIFWKHWIQTKDGQCGSPLVSTRDGFIVGIHSASNFTNTRNYFTSVPKNFMELLTNQEAQQWVSGWRLNADSVLWGGHKVFMVKPEEPFQPVKEATQL [N177R]	0.0631	0.0554	–	0.0841	–	0.0693	0.0627	0.0734	–	–	0.0606	–	–	–	–	–	–	–	–
MGESLFKGPRDYNPISSSICHLTNESDGHTTSLDGIGFGPFIITNKHLFRRNNGTLVVQSLHGVFKVKDTTTLQQHLVDGRDMIIIRMPKDFPPFPQKLKFREPQREERICLVTTNFQTKSMSSMVSDTSCTFPSGDGIFWKHWIQTKDGQCGSPLVSTRDGFIVGIHSASNFTNTNNYFTSVPKNFMELLTNQEAQQWVSGWRLNADSVLWGGHKVFMVKPEEPFQPVKEATQL [Y34D]	0.056	0.0558	–	–	–	0.0538	–	0.0548	–	0.0811	0.0552	0.0485	0.059	0.0625	0.0431	–	–	–	–
MGESLFKGPRDYNPISSSICHLTNESDGHTTSLYGIGFGPFIITNKHLFRRNNGTLVVQSLHGVFKVKDTTTLQQHLVDGRDMIIIRMPKDFPPFPQKLKFREPQREERICLVTTNFQTKSMSSMVSDTSCTFPSGDGIFWKSWIQTKDGQCGSPLVSTRDGFIVGIHSASNFTNTNNYFTSVPKNFMELLTNQEAQQWVSGWRLNADSVLWGGHKVFMVKPEEPFQPVKEATQL [H143S]	0.0604	0.0625	–	0.0494	0.046	0.021	0.071	0.0776	0.0969	–	0.0464	0.0513	0.0618	0.0537	0.0644	0.0615	–	–	–
MGESLFKGPRDYNPISSSICHLTNESDGHTTSLYGIGFGPFIITNKHLFRRNNGTLVVQSLHGVFKVKDTTTLQQHLVDGRDMIIIRMPKDFPPFPQKLKFREPQRVERICLVTTNFQTKSMSSMVSDTSCTFPSGDGIFWKHWIQTKDGQCGSPLVSTRDGFIVGIHSASNFTNTNNYFTSVPKNFMELLTNQEAQQWVSGWRLNADSVLWGGHKVFMVKPEEPFQPVKEATQL [E107V]	0.0529	–	–	0.068	–	–	0.0674	0.0595	–	0.0607	0.0588	–	0.0804	–	0.0595	0.0235	0.0667	0.0804	0.0618
MGESLFKGPRDYNPISSSICHLTNESDGHTTSLYGIGFGPFIITNKHLFRRNNGTLVVQSLHGVFKVKDTTTLQQYLVDGRDMIIIRMPKDFPPFPQKLKFREPQREERICLVTTNFQTKSMSSMVSDTSCTFPSGDGIFWKHWIQTKDGQCGSPLVSTRDGFIVGIHSASNFTNTNNYFTSVPKNFMELLTNQEAQQWVSGWRLNADSVLWGGHKVFMVKPEEPFQPVKEATQL [H76Y]	0.0572	–	0.0578	0.0434	–	0.0594	–	0.073	–	0.0419	–	–	0.0525	0.0483	–	0.0466	0.0703	0.0839	0.0541
MGESLFKGPRDYNPISSSICHLTNESDGHTTSLYGIGFGPFIITNKHLFRRNNGTLVVQSLHGVFKVKDTTTLQQHLVDGRDMIIIRMPKDFPPFPQKLKFREPQREERICLVTTNFQTKSMSSMVSDTSCTFPSGDGIFWKHWIQTKDGQCGSPLVSTRDGFIVGIHSASNFTNTNNYFTSVPKNFMELLTNQEAQQWVSGWRLNADSVLWGGHKVFMVKPEEPFQPVKEATEL [Q234E]	0.0588	0.0733	–	0.0644	0.0523	0.0613	0.0577	0.0498	–	0.0608	0.0633	0.0579	–	0.0775	–	0.0296	0.0685	–	–
MGESLFKGPRDYNPISSSICHLTNESDGHTTSLYGIGFGPFIITNKHLFRRNNGTLVVQSLHGVFKVKDTTTLQQHLVDGRDMIIIRMPKDFPPFPQKLKFREPQREERICLVTTNFQTKSMSSMVSDTSCTFPSGDGIFWKHWIQTKDGQCGSPLVSTRDGFIVGIHSASNFTNTNNYFTSVPKNFMELLTNQEAQQWVSGWRLNADSVLWGGHKVFMVKPEEPFQPVKEAIQL [T233I]	0.0597	–	0.0329	0.0494	0.0717	–	0.0761	–	–	0.0617	–	–	–	0.0464	–	0.0687	0.0754	–	–
MGESLFKGPRDYNPISSSICHLTNESDGHTTSLYGIGFGPFIITNKHLFRRNNGTLVVQSLHGVFKVKDTTTLQQHLVDGRDMIIIRMPKDFPPFPQKLKFREPQREERICLVTTNFQTKSMSSMVSDTSCTFPSGDGIFWKHWIQTKDGQCGSPLVSTRDGFIVGIHSASNFTNTNNYFTSVPKNFMELLTNQEAHQWVSGWRLNADSVLWGGHKVFMVKPEEPFQPVKEATQL [Q197H]	0.0565	0.0753	0.0648	0.0494	–	0.0521	0.0616	0.0622	0.0678	–	0.0744	–	–	0.0479	–	0.0553	0.068	0.0581	–
MGESLFKGPRDYNPISSSICHLTNESDGHTTSLYGIGFGPFIITNKHLFRRNNGTLVVQSLHGVFKVKDTTTLQQHLVDGRDMIIIRMPKDFPPFPQKLKFREPQREERICLVTTNFQTKSMSSMVSDTSCTFPSGDGIFWKHEIQTKDGQCGSPLVSTRDGFIVGIHSASNFTNTNNYFTSVPKNFMELLTNQEAQQWVSGWRLNADSVLWGGHKVFMVKPEEPFQPVKEATQL [W144E]	0.0676	0.0636	0.0547	0.0582	0.0596	0.0699	0.0464	0.0693	0.0615	0.0668	–	–	–	–	0.0621	0.0662	0.0534	0.0723	0.0609
